Test results published in PubChem BioAssay AID1768 (National Center for Advancing Translational Sciences (NCATS), 2009).
The campaign covered roughly 270,000 compounds. About 620 (0.23%) were called active. Inconclusive means that the source gave no clear call. Such entries were picked first, then a sample of the others. Calls come from the whole dose curve; as a rule, active = well fitted inhibition curve with a large enough effect in the polarisation, with a control signal flat (not every such curve was filed as active); inconclusive = small, poorly fitted or top-dose-only effect, or effect the other way, or a change in a side signal; inactive = no such curve, though single readings can be large or run the other way; the % refers to the polarisation. A potency beside an inconclusive call is a rough fit, not a confirmed value. “Side channel” marks fits to a control or component signal instead of the main read-out.

Molecular target: Menin (Homo sapiens) (UniProt O00255)
UniProt O00255, sequence (O00255 whole entry, looked up): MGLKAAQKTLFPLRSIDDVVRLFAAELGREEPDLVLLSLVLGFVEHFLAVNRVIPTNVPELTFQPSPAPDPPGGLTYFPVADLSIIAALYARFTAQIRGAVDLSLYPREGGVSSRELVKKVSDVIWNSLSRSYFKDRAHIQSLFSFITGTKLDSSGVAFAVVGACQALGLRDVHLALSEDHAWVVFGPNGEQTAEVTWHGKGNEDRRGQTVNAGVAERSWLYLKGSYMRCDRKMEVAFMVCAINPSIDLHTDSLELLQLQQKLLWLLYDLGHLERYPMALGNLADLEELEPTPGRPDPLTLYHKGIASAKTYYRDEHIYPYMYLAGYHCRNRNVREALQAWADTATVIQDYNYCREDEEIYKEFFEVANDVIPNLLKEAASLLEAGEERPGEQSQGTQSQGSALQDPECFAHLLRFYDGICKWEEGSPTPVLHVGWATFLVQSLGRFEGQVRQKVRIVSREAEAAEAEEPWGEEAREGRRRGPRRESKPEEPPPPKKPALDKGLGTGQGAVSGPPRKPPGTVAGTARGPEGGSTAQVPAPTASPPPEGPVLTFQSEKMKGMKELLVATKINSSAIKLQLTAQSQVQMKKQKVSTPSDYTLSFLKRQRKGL
Assay: qHTS Assay for Inhibitors Targeting the Menin-MLL Interaction in MLL Related Leukemias: Competition With Texas Red Labeled MLL-derived Mutant Peptide
Conditions: fluorescence polarization; series mostly up to 61.6 µM
Potency is the fitted concentration of half-maximal effect; tags give direction and shape of the fitted curve or compound fluorescence and quenching.

| SMILES | Potency |
| --- | --- |
| Cc1cc(C)c2c(c1)NC(C(=O)O)C1CC=CC21 (configuration not stated) | inactive |
| COc1ccc(C2(O)CCN(CCCCOc3ccccc3)CC2)cc1 | inconclusive: 0.631 µM [inhibitor, full curve, poor fit] |
| Cc1ccc(NCc2ccccc2O)cc1 | inactive |
| O=C(Nc1cccc([N+](=O)[O-])c1)c1ccc(-c2ccccc2)cc1 | inactive |
| CCc1ccc2[nH]c(C(=O)Nc3ccc(F)cc3Br)cc2c1 | inconclusive: 35.5 µM [quencher, side channel, single point] |
| COc1cccc(NC(=S)N2CCCN(Cc3ccc(F)cc3)C2)c1 | inconclusive: 3.55 µM [quencher, side channel, partial curve] |
| Cc1ccn2c(CNCC3OCCc4ccccc43)c(C(=O)N3CCCCCC3)nc2c1 (configuration not stated) | inconclusive: 3.16 µM [inhibitor, full curve, poor fit] |
| CCOCCOc1cccc(C(=O)NC(c2ccccc2)c2ccccc2)c1 | inconclusive: 15.8 µM [inhibitor, partial curve, poor fit] |
| CCNC(=S)NNC(=O)c1csc(CC)c1 | inactive |
| Cc1cc(C)c2cc(CN(CCCO)S(=O)(=O)c3ccccc3F)c(=O)[nH]c2c1 | inconclusive: 5.01 µM [inhibitor, single point] |
| Cc1ccc(N=c2c([N+](=O)[O-])nn(-c3ccccc3)n2O)c(C)c1 | inconclusive: 39.8 µM [quencher, side channel, single point] |
| O=C1C=CC2=C3c4cc(O)c(O)cc4C[C@]3(O)COC2=C1 | inconclusive: 28.2 µM [fluorescent, partial curve] |
| COc1ccc(CN(C)C(=O)C23CC4CC(CC(Cl)(C4)C2)C3)c(OC)c1OC | inactive |
| O=c1c2cc(Cl)ccc2[nH]c(=S)n1Cc1cccs1 | inconclusive: 28.2 µM [quencher, side channel, single point] |
| Cc1ccccc1NCCC(=O)Nc1ccc(F)cc1 | inconclusive: 28.2 µM [quencher, side channel, partial curve] |
| O=C(O)COc1ccc(/C=N/n2cnc3scc(-c4cccs4)c3c2=O)cc1 | inconclusive: 39.8 µM [quencher, side channel, single point] |
| COC(=O)CCC(=O)Nc1ccc(S(=O)(=O)N2CCc3ccccc32)cc1 | inconclusive: 39.8 µM [quencher, side channel, single point] |
| CCOc1ccc(-n2nc3ccc(N)cc3n2)cc1 | inconclusive: 25.1 µM [quencher, side channel, single point] |
| CCN1CCCC1CNC(=O)c1ccc(CS(=O)(=O)c2ccccc2C)o1 (configuration not stated) | inconclusive: 39.8 µM [inhibitor, single point] |

| SMILES | Potency |
| --- | --- |
| Cc1cccc(NC(=O)c2cc(-c3cc(Cl)ccc3O)n[nH]2)c1 | inconclusive: 2.24 µM [quencher, side channel, full curve] |
| COc1ccc(-c2nc(-c3ccccc3)c(Nc3ccc4ccccc4c3)o2)cc1 | inconclusive: 25.1 µM [quencher, side channel, single point] |
| COc1cc(OC)c(NC(=O)c2ccc3c(SCC(=O)O)c4c(nc3c2)CCCC4)cc1Cl | inconclusive: 39.8 µM [quencher, side channel, single point] |
| CC(=O)Nc1ccc(OCC(O)CNC2CCCC2)cc1 (configuration not stated) | inconclusive: 39.8 µM [inhibitor, partial curve, poor fit] |
| Cc1cccc(NC(=O)[C@@H](NC(=O)[C@@H]2Cc3ccccc3CN2)C(C)C)c1 | inconclusive: 0.316 µM [inhibitor, full curve, poor fit] |
| COc1ccc(C(=O)CCN2CCN(c3ccc(OC)cc3)CC2)cc1 | inconclusive: 39.8 µM [inhibitor, partial curve] |
| O=[N+]([O-])c1cc(S(=O)(=O)Nc2ccccc2)ccc1N1CCN(c2ccc(O)cc2)CC1 | inconclusive: 25.1 µM [quencher, side channel, partial curve] |
| CC(C)N(C(=O)COC(=O)[C@@H]1CC(O)CN1S(=O)(=O)c1ccc(C(C)(C)C)cc1)C(C)C (some centres not stated) | inconclusive: 12.6 µM [fluorescent, side channel, partial curve] |
| O=C(CCS(=O)(=O)c1ccc(Cl)cc1)NCCN1C(=O)S/C(=C\c2ccccc2F)C1=O | inactive |
| O=C(O)COc1ccccc1/C=N/Nc1ccc(S(=O)(=O)Nc2ccc(Cl)cc2)cc1[N+](=O)[O-] | inconclusive: 12.6 µM [quencher, side channel, partial curve] |
| COc1ccc(CC(=O)NCc2n[nH]c(=S)n2-c2ccccc2OC)cc1 | inconclusive: 17.8 µM [inhibitor, partial curve] |
| Cc1cc(C(=O)OCC(=O)c2ccc(Cl)c([N+](=O)[O-])c2)c2cccc(C)c2n1 | inconclusive: 12.6 µM [quencher, side channel, partial curve] |
| CCN(CC)CCCN(Cc1cc2ccc(C)c(C)c2[nH]c1=O)C(=O)NC1CCCCC1 | inconclusive: 39.8 µM [inhibitor, single point] |
| COc1ccc(-n2nc3cc(N)c(Br)cc3n2)cc1 | inconclusive: 31.6 µM [quencher, side channel, single point] |
| O=C1NC(=S)S/C1=C\c1ccc2ccccc2c1 | inconclusive: 22.4 µM [quencher, side channel, single point] |
| Cc1cccc2sc(NC(=O)c3ccc(Cl)s3)nc12 | inconclusive: 11.2 µM [quencher, side channel, partial curve] |
| Cc1ccc(NCc2n[nH]c(=S)n2Cc2ccccc2)cc1Cl | inconclusive: 14.1 µM [quencher, side channel, partial curve] |
| O=C(Nc1ccccc1Cc1ccccc1)c1ccccc1NS(=O)(=O)c1ccc(Cl)s1 | inconclusive: 10 µM [quencher, side channel, partial curve] |
| Cc1ccc(-c2ccc(=O)n(CCC(=O)N3CCN(c4cccc(C)c4)C(C)C3)n2)cc1 (configuration not stated) | inconclusive: 12.6 µM [fluorescent, side channel, partial curve] |

| SMILES | Potency |
| --- | --- |
| CCOc1ccc(/C=C/C(=O)Nc2ccc(OC)cc2[N+](=O)[O-])cc1 | inconclusive: 39.8 µM [inhibitor, single point] |
| CCOc1ccc(NC(=O)c2ccccc2OCC(=O)c2ccccc2)cc1 | inconclusive: 3.16 µM [quencher, side channel, full curve] |
| O=C(CCn1c(=O)[nH]c2ccsc2c1=O)Nc1ccc(F)c(F)c1 | inconclusive: 25.1 µM [fluorescent, side channel, single point] |
| CCc1ccc(CNc2ccc3c(c2)ncn3C(C)(C)C)cc1 | inconclusive: 14.1 µM [fluorescent, side channel, partial curve] |
| COC(=O)[C@@H]1CC[C@H](C)[C@@H](c2ccc(C)cc2)N1C(=O)c1ccc(/C=N/O[C@H](C)c2cn([C@@H]3COC[C@H]3O)nn2)cc1 | inconclusive: 8.91 µM [fluorescent, side channel, full curve, poor fit] |
| COc1ccc(CN2C(=O)CN(C3CCCCCC3)C(=O)C2c2ccc(F)cc2)cc1 (configuration not stated) | inconclusive: 8.91 µM [inhibitor, full curve, poor fit] |
| CCNc1ncc2nc(-c3cc(F)cc(F)c3)c(=O)n(-c3ccccc3)c2n1 | inactive |
| CS(=O)(=O)N1CCc2cc(C(=O)Nc3cccc([N+](=O)[O-])c3)ccc21 | inconclusive: 31.6 µM [quencher, side channel, single point] |
| Cc1ccc(C)c(NC(=O)C(Sc2nnc(-c3cccs3)o2)c2ccccc2)c1 (configuration not stated) | inconclusive: 39.8 µM [inhibitor, single point] |
| Cc1ccc2[nH]c(=O)c(CN(Cc3ccc4c(c3)OCO4)Cc3nnnn3C3CCCC3)cc2c1 | inactive |
| Cc1cc(NC(=O)c2ccc(COc3ccccc3Cl)o2)no1 | inconclusive: 10 µM [inhibitor, partial curve] |
| COc1ccc(N=C2SC(CC(=O)Nc3ccccc3)C(=O)N2Cc2ccccn2)cc1 (configuration not stated) | inconclusive: 11.2 µM [quencher, side channel, partial curve] |
| CC(C)(C)N1NC2(CCCCC2)NC1=S | inconclusive: 8.91 µM [inhibitor, full curve, poor fit] |
| NS(=O)(=O)c1ccc(N/N=C/c2ccccc2C(=O)O)c([N+](=O)[O-])c1 | inconclusive: 28.2 µM [quencher, side channel, single point] |
| CCOC(=O)CCCN1CC(O)=C(c2nc(-c3ccc(Cl)cc3)cs2)C1=N | inconclusive: 17.8 µM [quencher, side channel, partial curve] |
| COc1ccc(NS(=O)(=O)c2cc3c(cc2C)N(C(C)=O)CCO3)cc1 | inconclusive: 0.631 µM [quencher, side channel, full curve, poor fit] |
| COc1ccc(CNc2ncnc3ccc(-c4cccnc4)cc23)c(OC)c1 | inactive |
| CCN(CC)c1ccc(C(=C2C=CC(=[N+](CC)Cc3cccc(S(=O)(=O)[O-])c3)C=C2)c2ccc(N(CC)Cc3cccc(S(=O)(=O)O)c3)cc2)cc1 | inconclusive: 1.41 µM [fluorescent, side channel, full curve] |
| CC1(c2ccc(OCC(N)=O)cc2)NC(=O)NC1=O (configuration not stated) | inconclusive: 3.16 µM [inhibitor, single point] |
